Measured values published in PubChem BioAssay AID488969 (Vanderbilt High Throughput Screening Facility, 2010).
Whole data set: some 110,000 compounds, median “z-score” near -0.1, cut for the highest 2% near 2. The list shows a part of the results. The source made the active and inactive calls.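 The calls were made as follows: active = z-score in the third read window above 3 or below -3; inactive = the rest.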

Molecular target: Metabotropic glutamate receptor 8 (Rattus norvegicus) (UniProt P70579)
Assay: mGluR8 Gi/Go-coupled signaling modulation – cell-based, rat, thallium flux, HTS, primary screen (AID 488969)
Settings: HEK293 rat mGluR8, GIRK (G protein-gated inwardly rectifying potassium channel) thallium flux, FluoZin2; at 10 µM; stronger effect = higher value; submaximal glutamate (EC20) added with thallium

Chain of UniProt P70579 (P70579 whole entry, looked up): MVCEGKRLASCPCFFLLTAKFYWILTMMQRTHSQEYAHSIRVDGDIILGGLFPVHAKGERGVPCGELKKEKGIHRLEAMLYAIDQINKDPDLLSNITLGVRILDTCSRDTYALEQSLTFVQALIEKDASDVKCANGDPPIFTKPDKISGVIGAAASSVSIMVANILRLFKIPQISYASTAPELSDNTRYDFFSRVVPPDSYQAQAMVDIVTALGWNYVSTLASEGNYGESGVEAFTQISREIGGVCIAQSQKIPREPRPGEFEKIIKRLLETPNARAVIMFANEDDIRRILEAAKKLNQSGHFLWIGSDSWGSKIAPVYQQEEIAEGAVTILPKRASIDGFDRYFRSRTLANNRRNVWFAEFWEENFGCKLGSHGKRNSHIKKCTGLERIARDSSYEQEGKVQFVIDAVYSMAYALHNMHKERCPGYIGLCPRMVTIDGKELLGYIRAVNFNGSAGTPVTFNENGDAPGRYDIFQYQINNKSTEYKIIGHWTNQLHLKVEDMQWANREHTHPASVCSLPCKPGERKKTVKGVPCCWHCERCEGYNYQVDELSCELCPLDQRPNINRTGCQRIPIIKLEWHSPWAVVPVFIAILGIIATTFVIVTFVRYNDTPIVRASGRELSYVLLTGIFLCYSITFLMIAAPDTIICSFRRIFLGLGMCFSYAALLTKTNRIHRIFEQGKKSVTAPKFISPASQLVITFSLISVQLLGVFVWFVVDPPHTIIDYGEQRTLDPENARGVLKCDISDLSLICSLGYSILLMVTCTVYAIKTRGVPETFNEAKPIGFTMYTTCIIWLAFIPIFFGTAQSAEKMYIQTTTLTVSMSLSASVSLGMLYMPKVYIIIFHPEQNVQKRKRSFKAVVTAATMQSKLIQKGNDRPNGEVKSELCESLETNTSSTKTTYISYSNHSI

| SMILES | z-score |
| --- | --- |
| CCCN1C(=O)c2cc(C(=O)NCCc3cccc(C)c3)ccc2C1O (configuration not stated) | -0.0719 |
| O=C(CNC1CCCCCC1)Nc1ccc(N2CCCC2)cc1 | 2.66 |
| O=C(COc1cccc(Cl)c1)N/N=C\c1cc2ccccc2nc1Cl | 0.267 |
| COCC(=O)N(Cc1cc2cc(OC)ccc2[nH]c1=O)c1ccccc1OC | -0.0574 |
| O=C(NNC(=O)C1CC2CCC1C2)c1sc2ccccc2c1Cl (configuration not stated) | -0.16 |
| COC(=O)CSC1=C(C#N)C(c2ccccc2)CC(=O)N1 (configuration not stated) | -0.164 |
| Cc1ccc(S(=O)(=O)Nc2ccccc2C=Nc2cccc(C)c2C)cc1 | -0.0798 |
| Cc1cccc(NC(=O)C2(C)CC3c4ccccc4C2c2ccccc23)c1 (configuration not stated) | -0.269 |
| CCn1cc(C(=O)O)c(=O)c2cc(F)c(N3CCN(C(=O)Nc4ccccc4)CC3)cc21 | -0.217 |
| CCN1CN=C(NS(=O)(=O)c2ccc(C)cc2)NC1 | -0.355 |
| CCCCOC(=O)Nc1nc2ccccc2s1 | -0.291 |
| Cc1ccc(-n2c(CCc3ccccc3)nnc2SCC(=O)NCc2ccccc2)cc1C | 0.651 |
| CC(C)N(C)CCOC(=O)c1ccccc1Br | 0.0918 |
| CN(C)c1nc(Oc2ccc(=O)n(C)n2)nc(N2CCOCC2)n1 | 0.191 |
| O=C(Nc1ncc(Cc2ccccc2)s1)C1COc2ccccc2O1 (configuration not stated) | 0.295 |
| Cc1cc(C(=O)CSc2nnc3ccccn23)c(C)n1-c1ccccc1 | 0.237 |
| COc1ccc(-c2nc(C#N)c(NCC3CCCO3)o2)cc1 (configuration not stated) | -0.0444 |
| CCOC(=O)c1[nH]c(=O)[nH]c1CSCCO | 0.124 |
| COc1ccc2nc(/N=C/c3c(C)[nH]n(-c4ccc(C)cc4)c3=O)sc2c1 | active: 9.39 |
| O=C(NC1CCCCC1)c1ccccc1-c1ccccc1 | -0.176 |
| COc1ccc(Nc2oc(COc3ccc(C)cc3)nc2C#N)cc1 | -0.083 |
| Cc1nc(C)c(/C(O)=C/c2nc3ccccc3oc2=O)s1 | 0.104 |
| COc1ccc(C(=O)ON=C2CCN(c3ccc([N+](=O)[O-])cc3)CC2)cc1 | -0.868 |

| SMILES | z-score |
| --- | --- |
| O=C(CSc1nnnn1C1CCCC1)N1CCN(C(=O)c2ccco2)CC1 | -0.462 |
| Cc1ccc(S(=O)(=O)c2c(C)nn(C(C)(C)C)c2OC(=O)c2ccco2)cc1 | -0.668 |
| O=C(Oc1ccc(N2C(=O)CCC2=O)cc1)c1ccco1 | -0.374 |
| CCOC(=O)N1CCN(C(=O)COc2cccc3c2CCN(Cc2ccc(F)cc2)C3=O)CC1 | -0.164 |
| COc1cccc(OCCSc2nc(N)cc(N)n2)c1 | -0.00897 |
| CCc1[nH]nc2c1C1(C(=O)N(Cc3ccccc3)c3ccccc31)C(C#N)=C(N)O2 (configuration not stated) | 1.98 |
| COc1cc(CNCc2ccccn2)ccc1OCC(=O)NC1CCCCC1 | -0.253 |
| O=C(Cc1c(Sc2ccccc2)c2ccccc2n1Cc1ccccc1)NCCO | 0.12 |
| N#Cc1ccsc1NC(=O)CSc1ncnc2ccccc12 | 1.01 |
| CN1/C(=C\C=Nc2ccc3ccccc3c2)C(C)(C)c2ccccc21 | -1.01 |
| COc1cccc(-n2c(CN3CCN(Cc4ccccc4)CC3)nc3ccc([N+](=O)[O-])cc3c2=O)c1 | 0.48 |
| O=C(CNS(=O)(=O)c1ccc(Br)cc1)N1CCN(c2ccc(F)cc2)CC1 | -0.0366 |
| O=C(COC(=O)c1ccc2ccccc2c1)Nc1ncc(C(F)(F)F)cc1Cl | -0.0886 |
| O=C(NNC(=O)c1cccnc1SCc1cccc([N+](=O)[O-])c1)c1ccc(F)cc1 | 0.33 |
| O=S(=O)(c1ccc(Cl)cc1)N1CCC(N2CCOCC2)CC1 | 0.0841 |
| CC(=O)c1cccc(NC(=O)CSc2nnc(-c3ccc(S(=O)(=O)N4CCCC4)cc3)o2)c1 | -0.553 |
| CC(=O)Nc1sc(N/N=C\c2ccccc2F)nc1-c1cccs1 | -0.726 |
| C=CCNC(=O)CCCCC(=O)NCC=C | -0.0942 |
| CN(C)S(=O)(=O)c1cc(C(=O)NCC2CCCO2)c(Cl)cc1Cl (configuration not stated) | 0.101 |
| CCSc1cc(C)nc2c(-c3ccccc3)c(C)nn12 | -0.471 |
| COCC(=O)Nc1ccccc1C(=O)NC(C)C | 0.383 |
| C#CCOC(=O)c1ccccc1C(=O)OCC#C | -0.173 |
| CCOC(=O)c1c(CN(CC)CC)oc2cc(Br)c(O)cc12 | -1.27 |

| SMILES | z-score |
| --- | --- |
| COc1ccc2nc(SC(C(=O)c3ccccc3)c3ccccc3)nc(C)c2c1 (configuration not stated) | 0.574 |
| Cc1nc(SCC(=O)c2cccc([N+](=O)[O-])c2)n[nH]1 | -0.159 |
| Cc1cc(C)n(C(=O)CCC2COc3ccccc3O2)n1 (configuration not stated) | -0.753 |
| COc1ccc(C)cc1NC(=O)CSc1nc(SC)ns1 | -0.526 |
| Cc1ccc(C(=O)NNC(=O)C2CCCN(c3ncccn3)C2)cc1 (configuration not stated) | 0.36 |
| COC(=O)CCCCCCCCCCN1CCCCC1 | -1.49 |
| Cn1c(=O)c2c(nc(N3CCCCCC3)n2CC(=O)c2ccccc2)n(C)c1=O | -0.257 |
| CCCCCCC(=O)Nc1nc(C)c(-c2csc(Nc3cccc(OC)c3)n2)s1 | -0.0614 |
| O=C(N/N=C1\CCc2ccccc21)c1ccccc1O | 0.0387 |
| NC(=O)NC(=O)CSc1nc(C2CCCCC2)n(-c2ccccc2)n1 | -0.264 |
| O=C(Nc1nc2ccccc2[nH]1)c1ccc(Cl)c(S(=O)(=O)N2CCCC2)c1 | -0.459 |
| COC(=O)c1ccc(Oc2nc(Nc3ccc(F)cc3)nc(N3CCCC3)n2)cc1 | 0.419 |
| CCOC(=O)C1CCN(S(=O)(=O)c2ccc(C)cc2)CC1 | 0.0605 |
| C/C(CC(=O)Nc1ccc(Cl)cc1)=N\NC(=O)C(=O)NCCO | 0.444 |
| Cc1ccccc1Cn1c(=O)n(Cc2ccco2)c(=O)c2ccccc21 | -0.362 |
| Cc1c(Br)cc(C(=O)NC2CCCCC2)c(C)c1C | -0.949 |
| CC1Cc2ccccc2N1C(=O)C1CCN(S(=O)(=O)c2cccs2)CC1 (configuration not stated) | 0.0507 |
| COc1ccc(NC(=O)c2ccc(C(=O)c3ccccc3)o2)cc1 | 0.267 |
| CCOC(=O)c1cc2c3ccccc3n(CC)c2nc1N | 1.33 |
| COc1ccc(C(=O)n2nc(-c3ccco3)nc2SC)cc1OC | -0.997 |
| COC(=O)COc1ccc2occ(C(C)=O)c2c1 | 0.456 |
| COc1ccccc1N1C(=O)CC(N2CCc3ccccc32)C1=O (configuration not stated) | -0.042 |
| Cc1ccc2nc(NC(=O)CSCc3ccccc3)sc2c1 | -0.525 |

| SMILES | z-score |
| --- | --- |
| O=C(c1ccc([N+](=O)[O-])cc1)N1CCN(Cc2ccccc2)CC1 | -0.09 |
| CCOCCn1c(SCc2ccc(F)cc2)nc2c1c(=O)[nH]c(=O)n2C | 0.136 |
| Cc1cc2c(=O)n(Cc3ccco3)c(SCC(=O)c3ccc(Cl)s3)nc2s1 | 0.0822 |
| CCOC(=O)C(NC(=O)c1cccc(Cl)c1)(OCc1ccc(F)cc1)C(F)(F)F (configuration not stated) | -0.0992 |
| O=C(NCc1ccccc1)c1ccc(C2SCC(=O)N2Cc2ccccc2)cc1 (configuration not stated) | -0.875 |
| N#C/C(=C\c1cccc(Oc2ccc(C(F)(F)F)cc2[N+](=O)[O-])c1)c1nc2ccccc2[nH]1 | 0.00811 |
| O=C(COc1ccc(Cl)cc1Cl)Nc1noc2ccccc12 | active: 12.9 |
| Cn1c(SCC(=O)NC(=O)NCc2ccco2)nnc1-c1ccccc1 | 0.74 |
| COc1cccc(N(CC(=O)Nc2ccccc2C)S(C)(=O)=O)c1 | -0.0477 |
| Cc1c(C(=O)N2CCN(c3ccccn3)CC2)sc2ncnc(N3CCN(c4ccccc4)CC3)c12 | -1.02 |
| CC(=O)Nc1ccc(/C(C)=N/NC(=O)c2ccc(F)cc2)cc1 | -0.116 |
| COc1ccccc1C(=O)NCCn1ccc2ccccc21 | 0.0274 |
| O=[N+]([O-])c1ccc(N/N=C/c2cn(Cc3ccc(F)cc3)c3ccccc23)nc1 | 0.0783 |
| CN1CCN(c2ccc(S(=O)(=O)N3CCCCC3)cn2)CC1 | -0.0159 |
| Cc1ccc(Cn2cccc(NC(=O)NC3CCCCC3)c2=O)cc1 | -0.24 |
| CCn1c(SCC(N)=O)nc2sc3c(c2c1=O)CCCC3 | active: 8.59 |
| Cc1c(Br)c(C(F)(F)F)nn1CC(=O)NCC1CCCO1 (configuration not stated) | 0.71 |
| CCOc1nc(NCCO)nc(NCCC2=CCCCC2)n1 | -0.166 |
| CCOC(=O)N1CCN(C(=O)Cn2ncc3c2-c2ccccc2OC3)CC1 | -0.102 |
| CCn1c(=NC(=O)c2ccco2)sc2cccc(F)c21 | -2.12 |
| CCCc1cc(N2CCCC2)n2nc(C)c(-c3ccccc3)c2n1 | -0.291 |
| CC(=O)Oc1c(C(=O)c2nnc(C)o2)c(=O)n(C)c2ccccc12 | -0.074 |
| CCCN1C(=O)SC(CC(=O)Nc2ccccc2C)C1=O (configuration not stated) | -0.0981 |

| SMILES | z-score |
| --- | --- |
| Cc1ccc(N2C(=O)c3n[nH]c(C)c3C2c2ccccn2)cc1 (configuration not stated) | -0.326 |
| N/C(=N\c1nc2c(c(=O)[nH]1)CCC2)Nc1ccccc1C(F)(F)F | -0.161 |
| CC(=O)c1ccc(OC(=O)c2cccs2)cc1 | -0.705 |
| CCOc1cc(C=O)ccc1OCCCN1C(=O)NC(C)(C)C1=O | -0.139 |
| O=C(c1ccco1)N1CCN(C(c2ccc(Cl)cc2)c2nnnn2Cc2ccccc2)CC1 (configuration not stated) | -0.4 |
| COC(=O)c1cc2c(-c3ccccc3)c(C)c3ccccn3c-2c1C(=O)OC | -0.24 |
| CC(Oc1ccc(C(=O)NC2CCCCC2)cc1)C(=O)O (configuration not stated) | 1.07 |
| CCOC(=O)c1cccc(NC(=O)CN(C)S(=O)(=O)c2cnc[nH]2)c1 | 0.0312 |
| COC(=O)c1c(-c2ccc(C)cc2)csc1NC(=S)NC(=O)c1ccc(F)cc1 | -0.144 |
| N/C(=N\OC(=O)C12CC3CC(CC(C3)C1)C2)c1ccccc1 | -0.215 |
| Cc1ccc(/C=N/N2CCN(c3ccncc3S(=O)(=O)N3CCCCC3)CC2)cc1 | 0.486 |
| O=C(Cc1ccccc1)NC(NCCc1ccccc1)C(Cl)(Cl)Cl (configuration not stated) | -0.058 |
| CCOC(=O)c1c(C)nc2ccc(C)cn12 | -0.282 |
| COc1cc(NC(C)CCCN)c2ncccc2c1Oc1ccccc1 (configuration not stated) | 0.817 |
| N#C/C(=C/c1ccc(C(=O)O)cc1)C(=O)NCc1ccccc1 | -0.123 |
| Cn1c(=O)c2c(ncn2CCCNC2=CC(C)(C)CC(=O)C2)n(C)c1=O | 0.279 |
| O=C(NN=C1CCCCCC1)c1ccc(Br)o1 | 0.0417 |
| O=C(NC1=NCCS1)c1ccc2c(c1)C(=O)N(Cc1ccco1)C2=O | 0.0114 |
| CCOC(=O)C1=C(C)Nc2ncnn2C1c1ccc2c(c1)OCO2 (configuration not stated) | -0.217 |
| CCCn1nnc(NC(=O)c2ccc(F)cc2)n1 | -0.08 |
